# In the supplement of paper PMC6089552:
# About 300 (9.4%) of roughly 3,200 compounds showed activity. Only a part is listed here, and it is no random draw.
# Test system: A673/TR/shEF
# Assay: cell viability (LOESS-normalised, relative to median of negative controls) (log2 ratio); higher = more viable cells (less compound effect), active = hit call of the paper (over 3 MAD below the median)
# Conditions: treatment time: 72 h
# Summary of the method: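 For three days, A673/TR/shEF Ewing sarcoma cells in 384-well plates (1,500 per well) were treated with library compounds at two or more concentrations or with DMSO controls, after doxycycline had been added or withheld 24 h beforehand to induce EWS-FLI1 shRNA knockdown. Viability was read by CellTiter-Glo luminescence on an Envision reader. The data were LOESS-corrected per plate, divided by the median of negative controls and log2-transformed.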
# [1] = 0.25 µM, library screen: screen2, EWS-FLI1 expression: high (no doxycycline)
# [2] = 0.25 µM, library screen: screen2, EWS-FLI1 expression: low (doxycycline-induced shRNA knockdown)
# [3] = 2.5 µM, library screen: screen2, EWS-FLI1 expression: high (no doxycycline)
# [4] = 2.5 µM, library screen: screen2, EWS-FLI1 expression: low (doxycycline-induced shRNA knockdown)
# [5] = 2.5 µM, library screen: screen1, EWS-FLI1 expression: high (no doxycycline)
# [6] = 0.25 µM, library screen: screen1, EWS-FLI1 expression: high (no doxycycline)
# [7] = 0.25 µM, library screen: screen1, EWS-FLI1 expression: low (doxycycline-induced shRNA knockdown)
# [8] = 2.5 µM, library screen: screen1, EWS-FLI1 expression: low (doxycycline-induced shRNA knockdown)
compound,measurement,setting,value
CC(C)[C@@]1(NC(=O)[C@@H]2C=C3c4cccc5[nH]cc(c45)C[C@H]3N(C)C2)O[C@@]2(O)[C@@H]3CCCN3C(=O)[C@H](Cc3ccccc3)N2C1=O,cell viability (log2),[1],inactive: 0.129
same,cell viability (log2),[2],inactive: 0.0491
same,cell viability (log2),[3],inactive: 0.0947
same,cell viability (log2),[4],inactive: 0.0782
CC[C@@]1([C@H]2O[C@H]([C@H]3O[C@@](O)(CO)[C@H](C)C[C@@H]3C)C[C@H]2C)CC[C@H]([C@@]2(C)CC[C@]3(C[C@H](O)[C@@H](C)[C@@H]([C@H](C)[C@H](OC)[C@@H](C)C(=O)O)O3)O2)O1,cell viability (log2),[5],active: -0.325
COc1ccc2c(c1)[C@@]13CCCC[C@H]1[C@@H](C2)NCC3,cell viability (log2),[1],inactive: 0.141
same,cell viability (log2),[2],inactive: 0.0967
same,cell viability (log2),[3],inactive: 0.0149
same,cell viability (log2),[4],inactive: 0.093
COc1cc2c(c(OC)c1OC)-c1ccc(OC)c(=O)cc1[C@@H](NC(C)=O)CC2,cell viability (log2),[6],active: -4.23
same,cell viability (log2),[7],active: -0.935
same,cell viability (log2),[1],active: -3.33
same,cell viability (log2),[2],active: -0.503
same,cell viability (log2),[5],active: -4.18
same,cell viability (log2),[8],active: -0.869
same,cell viability (log2),[3],active: -3.21
same,cell viability (log2),[4],active: -0.472
same,cell viability (log2),"25 µM, library screen: screen2, EWS-FLI1 expression: high (no doxycycline)",active: -3.45
same,cell viability (log2),"25 µM, library screen: screen2, EWS-FLI1 expression: low (doxycycline-induced shRNA knockdown)",active: -0.515
CC[C@@H](CO)NC(=O)[C@@H]1C=C2c3cccc4c3c(cn4C)C[C@H]2N(C)C1,cell viability (log2),[1],inactive: 0.124
same,cell viability (log2),[2],inactive: 0.0568
same,cell viability (log2),[3],inactive: 0.0862
same,cell viability (log2),[4],inactive: 0.0917
C[CH2][Hg][S]c1ccccc1C(=O)O,cell viability (log2),[6],active: -0.15
same,cell viability (log2),[5],active: -3.6
same,cell viability (log2),[8],active: -2.98
CN1CCc2cc3c(cc2[C@H]1[C@@H]1OC(=O)c2c1ccc1c2OCO1)OCO3,cell viability (log2),[6],inactive: 0.0332
same,cell viability (log2),[7],inactive: 0.0151
same,cell viability (log2),[1],inactive: 0.182
same,cell viability (log2),[2],inactive: 0.058
same,cell viability (log2),[5],inactive: 0.0536
same,cell viability (log2),[8],inactive: -0.00339
same,cell viability (log2),[3],inactive: 0.066
same,cell viability (log2),[4],inactive: 0.0943
OCc1cnc[nH]1,cell viability (log2),[1],inactive: 0.156
same,cell viability (log2),[2],inactive: 0.0587
same,cell viability (log2),[3],inactive: 0.0715
same,cell viability (log2),[4],inactive: 0.0882
O=C(O)CC[N+](=O)[O-],cell viability (log2),[6],inactive: 0.0358
same,cell viability (log2),[7],inactive: -0.0127
same,cell viability (log2),[1],inactive: 0.071
same,cell viability (log2),[2],inactive: 0.135
same,cell viability (log2),[5],inactive: 0.00748
same,cell viability (log2),[8],inactive: 0.113
same,cell viability (log2),[3],inactive: 0.153
same,cell viability (log2),[4],inactive: 0.0852
CC(=O)O[C@@H]1CC2C(C)(C)[C@H](O)C=C[C@]2(C)C2CC[C@]3(C)C(=CC(=O)O[C@H]3c3ccoc3)[C@@]21C (some centres not stated),cell viability (log2),[6],inactive: 0.113
same,cell viability (log2),[7],inactive: 0.0781
same,cell viability (log2),[5],inactive: 0.222
same,cell viability (log2),[8],inactive: 0.195
Oc1ccc2c3c1O[C@H]1[C@@H](O)CC[C@@]4(O)[C@@H](C2)N(CC2CCC2)CC[C@]314,cell viability (log2),[6],inactive: 0.179
same,cell viability (log2),[7],inactive: 0.0385
same,cell viability (log2),[1],inactive: 0.193
same,cell viability (log2),[2],inactive: 0.0903
same,cell viability (log2),[5],inactive: 0.196
same,cell viability (log2),[8],inactive: 0.1
same,cell viability (log2),[3],inactive: 0.143
same,cell viability (log2),[4],inactive: 0.153
CCC(=O)C(CC(C)N1CCOCC1)(c1ccccc1)c1ccccc1 (configuration not stated),cell viability (log2),[6],inactive: 0.0298
same,cell viability (log2),[7],inactive: 0.011
same,cell viability (log2),[5],inactive: 0.0537
same,cell viability (log2),[8],inactive: -0.074
CN1C[C@H](CNC(=O)OCc2ccccc2)C[C@@H]2c3cccc4c3c(cn4C)C[C@H]21,cell viability (log2),[6],inactive: 0.0915
same,cell viability (log2),[7],inactive: 0.0924
same,cell viability (log2),[1],inactive: 0.162
same,cell viability (log2),[2],inactive: 0.0868
same,cell viability (log2),[5],inactive: 0.139
same,cell viability (log2),[8],inactive: 0.265
same,cell viability (log2),[3],inactive: 0.088
same,cell viability (log2),[4],inactive: 0.156
Cc1[nH]c2ccccc2c1CN(C)C,cell viability (log2),[6],inactive: 0.0738
same,cell viability (log2),[7],inactive: 0.0842
same,cell viability (log2),[5],inactive: 0.116
same,cell viability (log2),[8],inactive: 0.138
CC(C)c1cccc(C(C)C)c1O,cell viability (log2),[1],inactive: 0.212
same,cell viability (log2),[2],inactive: 0.0586
same,cell viability (log2),[3],inactive: 0.0835
same,cell viability (log2),[4],inactive: 0.0729
O=C(OC1CC2CCC(C1)[N+]21CCCC1)C(O)(c1ccccc1)c1ccccc1 (configuration not stated),cell viability (log2),"0.103 µM, library screen: screen3, EWS-FLI1 expression: high (no doxycycline)",inactive: 0.0271
same,cell viability (log2),"0.103 µM, library screen: screen3, EWS-FLI1 expression: low (doxycycline-induced shRNA knockdown)",inactive: 0.0529
same,cell viability (log2),"0.308 µM, library screen: screen3, EWS-FLI1 expression: high (no doxycycline)",inactive: 0.0379
same,cell viability (log2),"0.308 µM, library screen: screen3, EWS-FLI1 expression: low (doxycycline-induced shRNA knockdown)",inactive: 0.0384
same,cell viability (log2),"0.926 µM, library screen: screen3, EWS-FLI1 expression: high (no doxycycline)",inactive: -0.0177
same,cell viability (log2),"0.926 µM, library screen: screen3, EWS-FLI1 expression: low (doxycycline-induced shRNA knockdown)",inactive: 0.0427
same,cell viability (log2),"2.8 µM, library screen: screen3, EWS-FLI1 expression: high (no doxycycline)",inactive: 0.0921
same,cell viability (log2),"2.8 µM, library screen: screen3, EWS-FLI1 expression: low (doxycycline-induced shRNA knockdown)",inactive: 0.0957
same,cell viability (log2),"8.3 µM, library screen: screen3, EWS-FLI1 expression: high (no doxycycline)",inactive: 0.022
same,cell viability (log2),"8.3 µM, library screen: screen3, EWS-FLI1 expression: low (doxycycline-induced shRNA knockdown)",inactive: 0.0679
same,cell viability (log2),"25 µM, library screen: screen3, EWS-FLI1 expression: high (no doxycycline)",inactive: 0.0665
same,cell viability (log2),"25 µM, library screen: screen3, EWS-FLI1 expression: low (doxycycline-induced shRNA knockdown)",inactive: 0.0295
CC(C)c1cc2c(c(O)c1O)[C@@]1(C(=O)O)CCCC(C)(C)[C@@H]1CC2,cell viability (log2),[6],inactive: 0.0242
same,cell viability (log2),[7],inactive: 0.0347
same,cell viability (log2),[5],inactive: 0.115
same,cell viability (log2),[8],inactive: 0.191
CC(=O)O[C@H]1C[C@@H](OC(C)=O)C(C)(C)C2C[C@@H](OC(C)=O)[C@]3(C)C(CC[C@@]4(C)[C@H](c5ccoc5)C[C@H]5O[C@]543)[C@]21C (some centres not stated),cell viability (log2),[6],inactive: 0.134
same,cell viability (log2),[7],inactive: 0.0408
same,cell viability (log2),[5],inactive: 0.129
same,cell viability (log2),[8],inactive: 0.147
Cc1nc(-c2ccc(-c3ccc(C(=O)N4CCc5cc6c(cc54)C4(CCN(C)CC4)CO6)cc3)c(C)c2)no1,cell viability (log2),[1],inactive: 0.157
same,cell viability (log2),[2],inactive: 0.0314
same,cell viability (log2),[3],inactive: 0.127
same,cell viability (log2),[4],inactive: 0.0502
